# Reference: PubChem BioAssay AID651820 (National Center for Advancing Translational Sciences (NCATS), 2012)
# Values joined by “and” are separate entries in the source; they are usually repeats but may differ in a detail not shown here. Equal entries are not always repeated. Hit rate of the full screen: of about 340,000 compounds, about 12,000 (3.5%) were called active. The shares of active, inactive and inconclusive entries below differ from those in the screen. Calls follow the shape of the dose curve; as a rule, active = well fitted inhibition curve with a large enough effect; inconclusive = small, poorly fitted or top-dose-only effect, or another doubt; inactive = no such curve, though single readings can be large or run the other way. No potency is given beside an inconclusive call; the fits are too rough.
# Test: qHTS Assay for Inhibitors of Hepatitis C Virus (HCV)
# Details: Huh7.5.1 HCVcc-Cre (HCVcc is cell-culture hepatitis C virus) infection, luciferase reporter, 44 h; series mostly up to 41.8 µM
# Procedure, shortened: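 Cells seeded at 1,000/well and cultured 4 h, then compounds added followed by HCVcc-Cre virus (~0.5 moi). After 44 h further culture, luciferase substrate was added, plates held 15 min at room temperature, and luminescence read for 15 sec.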
# Potency is read from the fitted curve at half-maximal effect; tags tell the direction and shape of the fitted curve.
row,Compound,Potency
1,CCOc1ccc(C(=O)NCC(=O)OCc2c(C)noc2C)cc1OCC,"inconclusive [inhibitor, single point]"
2,COc1ccc(CCNC(=O)Cn2nnc(C(=O)Nc3ccc(Br)cc3)c2N)cc1OC,"inconclusive [inhibitor, partial curve]"
3,Cc1cc2ccccc2nc1SCC(=O)N1CCCC1,active: 1 µM
4,CCOC(=O)N1CCN(c2c(N3CCN(C(=O)OCC)CC3)c(=O)c2=O)CC1,inactive
5,N#Cc1c(N)sc2c1CCN(C(=O)OCc1ccccc1)C2,"inconclusive [inhibitor, single point]"
6,Cc1c(C(=O)c2cccc3ccccc23)c2cccc3c2n1[C@H](CN1CCOCC1)CO3,"inconclusive [inhibitor, single point]"
7,CCCN1Cc2cccc(C(=O)NCc3ccccc3OC)c2C1=O,"inconclusive [inhibitor, single point]"
8,N#Cc1c(-c2ccc(Br)cc2)nc2n(c1=O)CCCS2,"inconclusive [inhibitor, single point]"
9,Fc1ccc(Br)cc1C1C=C(c2ccc(Br)cc2)Nc2ncnn21 (configuration not stated),"inconclusive [inhibitor, single point]"
10,O=C(NNC(=O)C1C2CCC(C2)C1C(=O)O)c1cccc(Cl)c1 (configuration not stated),"inconclusive [inhibitor, single point]"
11,Cc1ccc(S(=O)(=O)NCc2ccccc2)cc1C(=O)N1CCN(c2ccccc2)CC1,"inconclusive [inhibitor, partial curve]"
12,CCC(=O)N1c2ccc(S(=O)(=O)N3CCCC3)cc2CC1C (configuration not stated),"inconclusive [inhibitor, single point]"
13,COc1ccc(-c2noc(CCC(=O)NCc3cccnc3)n2)cc1,"inconclusive [inhibitor, single point]"
14,O=C(NC1CCCCC1)c1cc(C(=O)c2ccccc2Br)c[nH]1,"inconclusive [inhibitor, single point]"
15,CNc1nc2ccccc2n1/N=C/c1cccc(OC)c1OC,"inconclusive [inhibitor, single point]"
16,O=c1[nH]nc(Cc2ccccc2)c2ccccc12,"inconclusive [inhibitor, partial curve]"
17,Cc1cc(C)c(Cc2c(C)nc3c(C(=O)NCc4ccco4)cnn3c2C)c(C)c1,active: 8.91 µM
18,CNC(=O)/C=C1\NC(C)(C)Cc2ccccc21,"inconclusive [inhibitor, single point]"
19,CN(C)S(=O)(=O)c1ccc(C(=O)NCc2ccccc2)cc1,inactive
20,Cc1ccc(C2N(c3ccc(Cl)cc3)C(=O)N3CCCN23)cc1 (configuration not stated),inactive
21,COc1ccc(C(=O)Nc2cccc(C(C)=O)c2)cc1S(=O)(=O)N1CCOCC1,"inconclusive [inhibitor, single point]"
22,COc1ccc(NC(=O)c2oc3ccccc3c2NC(=O)c2ccco2)cc1,"inconclusive [inhibitor, partial curve]"
23,CCCCn1c(N)c(N(CC)C(=O)c2ccccc2C)c(=O)[nH]c1=O,inactive
24,CCc1nnc(NC(=O)Nc2ccccc2OC)s1,"inconclusive [inhibitor, partial curve]"

row,Compound,Potency
1,Cc1nc2cccc(C(=O)NCc3ccccc3)c2o1,"inconclusive [inhibitor, single point]"
2,COCCCN(C(C)=O)c1nc(-c2ccccc2)cs1,active: 12.6 µM
3,CCOc1ncccc1C(=O)Nc1ccc(S(=O)(=O)Nc2nccs2)cc1,"inconclusive [inhibitor, single point]"
4,CCCN(CC(=O)Nc1ccccc1C)C(=O)C1CCN(S(=O)(=O)c2ccccc2C(F)(F)F)CC1,"inconclusive [inhibitor, full curve, poor fit]"
5,[O-][n+]1onc2c1CCc1c-2nc(-c2ccccc2)n1OCc1ccccc1,inactive
6,Cc1ccc(OC(C)C(=O)Nc2ccc(C)c(S(=O)(=O)Nc3ccc(C)cc3C)c2)cc1 (configuration not stated),"inconclusive [inhibitor, single point]"
7,COc1ccc2[nH]c(C(=O)N3CCc4ccccc4C3)c(C)c2c1,active: 11.2 µM
8,Cn1c(-c2csc(-c3cccc(C(F)(F)F)c3)n2)n[nH]c1=S,inactive
9,CCOc1ccc(Nc2c3ccccc3nc3ccccc23)cc1,active: 3.98 µM
10,COc1ccc(NC(=O)C2CCCN2C(=O)NC2CCCCC2)c(OC)c1 (configuration not stated),inactive
11,CN1CCN(C(=O)CNc2ccc(C(F)(F)F)cc2[N+](=O)[O-])CC1,"inconclusive [inhibitor, single point]"
12,O=C(CCC1CCCN(C(=O)c2ccccc2Cl)C1)N1CCN(c2ccccn2)CC1 (configuration not stated),"inconclusive [inhibitor, single point]"
13,Cc1ccc(NC(=O)Cn2c(=O)n(Cc3ccco3)c(=N)c3c4c(sc32)COC(C)(C)C4)cc1,active: 11.2 µM and active: 3.16 µM
14,CCC1CCCCN1CCCNC(=O)c1cn(CC)c2ccc(S(=O)(=O)N(C)C3CCCCC3)cc2c1=O (configuration not stated),"inconclusive [inhibitor, single point]"
15,Fc1cccc(NC(=S)NCc2ccccn2)c1,inactive
16,CC(=O)Nc1ccc(NC(=O)CNC(=O)c2sc3ccccc3c2Cl)cc1,inactive
17,N#Cc1c([N+](=O)[O-])cc([N+](=O)[O-])cc1S(=O)(=O)Cc1ccccc1,active: 10 µM
18,O=C(CCn1nnc2ccccc21)N1CCN(c2ccccc2)CC1,inactive
19,CCC(CC)C(=O)NCCc1cc2c(OC)ccc(OC)c2[nH]c1=O,inactive
20,Cc1cc(NC(=O)c2cc(-c3cccnc3)nc3c(C)c(C)ccc23)no1,"inconclusive [inhibitor, single point]"
21,CC1=C(/C=C/C(C)=C/C=C/C(C)=C/C(=O)O)C(C)(C)CCC1,inactive
22,CCOC(=O)C1=C(N)Oc2ccc3ccccc3c2C1c1cccnc1 (configuration not stated),inactive
23,Cc1c2cnn(-c3ccccc3)c(=O)c2c(C)n1CCCC(=O)N1CCN(C2CCCCC2)CC1,"inconclusive [inhibitor, single point]"
24,COc1ccccc1NS(=O)(=O)c1ccc(N/N=C/C=C/c2ccccc2[N+](=O)[O-])c([N+](=O)[O-])c1,inactive

row,Compound,Potency
1,COc1cc(/C=C(\C#N)c2nc3ccccc3[nH]2)ccc1O,"inconclusive [inhibitor, partial curve]"
2,Cc1cc2c(cc1S(=O)(=O)NCc1ccccc1)OCC(=O)N2,inactive
3,COc1ccc(S(=O)(=O)N2CCN(C)CC2)cc1C(=O)Nc1ccccc1,inactive
4,O=C(CCC(=O)c1cccs1)NCc1cccc(C(F)(F)F)c1,inactive
5,Nc1nnnn1CC(=O)N/N=C/c1cccs1,inactive
6,COc1ccc(C(=O)CC(=O)C(=O)Nc2cccc([N+](=O)[O-])c2C)cc1,"inconclusive [inhibitor, partial curve]"
7,CO[C@H]1CC[C@@]2(C)[C@@H](CC[C@@H]3[C@@H]2CC[C@@]2(C)[C@H]3C[C@H](C(=O)N[C@@H](CCCN=C(N)N)C(=O)NCC(=O)N[C@@H](CC(=O)O)C(N)=O)O[C@]23CCCO3)C1,"inconclusive [inhibitor, single point]"
8,CCOC(=O)c1[nH]c(C)c(C(=O)N2CCc3c([nH]c4ccccc34)C2c2ccccn2)c1C (configuration not stated),"inconclusive [inhibitor, single point]"
9,CC(=O)N1CCN(c2ccccc2NC(=S)NC(=O)c2cc3ccccc3o2)CC1,"inconclusive [inhibitor, partial curve]"
10,CCC(=O)c1ccc(OCC(=O)NC2CCN(Cc3ccccc3)CC2)cc1,"inconclusive [inhibitor, single point]"
11,CN(C)CCCNc1cc(-c2ccccc2)nc2cc(-c3cccc(F)c3)nn12,"inconclusive [inhibitor, partial curve]"
12,CCCCC(=O)NC(c1ccc(Cl)cc1Cl)c1ccc2cccnc2c1O (configuration not stated),"inconclusive [inhibitor, full curve]"
13,COc1cccc(C(=O)COC(=O)C2CC3CCCC(C2)C3=O)c1 (configuration not stated),inactive
14,O=C(Cc1ccccc1)Nc1cccc(-c2nc3ncccc3o2)c1,"inconclusive [inhibitor, full curve]"
15,CC(C)(C)NC(=O)c1ccc2c(c1)N(CC(=O)N1CCCC1)C(=O)C(C)(C)O2,inactive
16,COc1ccc(Nc2nc(Nc3ccc(OC)cc3OC)nc(N3CCN(C)CC3)n2)c(OC)c1,active: 1 µM
17,Cc1cc(NC(=O)c2ccc(Cl)c([N+](=O)[O-])c2)no1,inactive
18,COc1ccc(NC(=O)Cc2ccc(-c3ccccc3)cc2)cn1,inactive
19,COC(=O)COc1ccc2c(c1)O/C(=C\c1ccco1)C2=O,inactive
20,Cc1ccccc1-n1ncc(C(C)NS(=O)(=O)c2sccc2C)c1C (configuration not stated),"inconclusive [inhibitor, single point]"
21,CCOC(=O)C1CCCN(C(=O)c2cc(S(=O)(=O)N3CCCCC3)ccc2Cl)C1 (configuration not stated),"inconclusive [inhibitor, single point]"
22,Cc1cc2occ(CC(=O)N(CCC(C)C)c3c(N)n(Cc4ccccc4)c(=O)[nH]c3=O)c2cc1C,"inconclusive [inhibitor, single point]"
23,O=S(=O)(c1ccccc1)c1ccc(NCc2ccco2)cc1,"inconclusive [inhibitor, single point]"
24,COc1cc(C(=O)OCc2cc(=O)oc3c(C)c(C)ccc23)ccc1OC(F)F,inactive
